Test results from article PMC4336329 (PLoS ONE, 2015).
In all, about 310,000 compounds went through this assay and about 14,000 (4.5%) showed an effect of 50% or more. Effects have a minus sign here. Some of the results follow.

target: human ether-à-go-go-related gene (hERG) potassium channel (human, UniProt Q12809); test: primary screen, population patch clamp on CHO cells stably expressing hERG
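Also: peak tail current of the secondary pulse compared with the same well before compound.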

human ether-à-go-go-related gene (hERG) potassium channel, sequence (Q12809 whole entry, looked up): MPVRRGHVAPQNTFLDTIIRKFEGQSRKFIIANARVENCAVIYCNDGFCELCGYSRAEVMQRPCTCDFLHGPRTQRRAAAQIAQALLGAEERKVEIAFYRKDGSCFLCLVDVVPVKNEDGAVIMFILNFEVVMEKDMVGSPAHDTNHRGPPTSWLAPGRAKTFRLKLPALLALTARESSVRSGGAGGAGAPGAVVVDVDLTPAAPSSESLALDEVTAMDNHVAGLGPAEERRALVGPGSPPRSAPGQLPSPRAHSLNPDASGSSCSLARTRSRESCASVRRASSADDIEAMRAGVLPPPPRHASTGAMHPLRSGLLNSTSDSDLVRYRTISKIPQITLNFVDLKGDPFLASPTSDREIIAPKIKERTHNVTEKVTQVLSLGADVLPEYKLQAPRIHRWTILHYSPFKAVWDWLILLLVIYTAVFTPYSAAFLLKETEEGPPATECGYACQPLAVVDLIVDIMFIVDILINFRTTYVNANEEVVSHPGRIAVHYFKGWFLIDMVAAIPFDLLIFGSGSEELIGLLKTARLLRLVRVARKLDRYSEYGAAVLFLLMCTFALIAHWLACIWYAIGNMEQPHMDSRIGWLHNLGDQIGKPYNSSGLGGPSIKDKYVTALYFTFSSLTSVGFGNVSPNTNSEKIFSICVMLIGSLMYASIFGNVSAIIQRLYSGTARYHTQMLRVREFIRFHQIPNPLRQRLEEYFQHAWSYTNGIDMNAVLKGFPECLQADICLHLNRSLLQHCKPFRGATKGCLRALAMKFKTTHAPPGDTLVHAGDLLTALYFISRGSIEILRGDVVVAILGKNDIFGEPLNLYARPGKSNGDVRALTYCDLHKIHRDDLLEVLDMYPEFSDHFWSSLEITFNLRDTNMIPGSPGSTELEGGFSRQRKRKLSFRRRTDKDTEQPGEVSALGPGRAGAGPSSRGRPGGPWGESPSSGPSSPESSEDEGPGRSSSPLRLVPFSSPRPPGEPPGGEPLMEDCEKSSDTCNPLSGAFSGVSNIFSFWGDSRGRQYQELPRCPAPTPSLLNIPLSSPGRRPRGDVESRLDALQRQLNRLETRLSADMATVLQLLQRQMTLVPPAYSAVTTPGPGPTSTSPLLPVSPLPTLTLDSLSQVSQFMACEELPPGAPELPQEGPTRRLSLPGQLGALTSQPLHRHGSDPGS

SMILES | hERG current change (%, negative = inhibition) at 10uM
CCN(CC)CC(=O)c1c[nH]c2ccccc12 | 3.05%
CCCN(Cc1cc2cc(OC)ccc2[nH]c1=O)C(=O)c1ccco1 | -19.5%
CCOc1ccc(OCCCCN2CCCC2)cc1.O=C(O)C(=O)O | -12.2%
CN(C(=O)CSC(=O)c1ccccc1)c1ccccc1 | 30.9%
Cc1ccc(-n2c(COc3cccc(C)c3)n[nH]c2=S)cc1 | -3.28%
O=C(Nc1cccc(-c2ccc3nncn3n2)c1)c1ccco1 | -10.1%
CCCC(=O)C1=C(O)C(C(=O)OC)C(C)(C)CC1=N (stereo not shown) | 19.9%
O=C(Nc1ccc(N2CCCCC2)c(Cl)c1)c1ccc(N2CCOCC2)c([N+](=O)[O-])c1 | 8.11%
COc1ccc(NC(=S)NC(=O)/C=C/c2cccs2)cc1 | -2.84%
CCn1ccnc1CN1CCC(n2nccc2NC(=O)CCc2ccccc2)CC1 | -3.91%
O=C(NCCN1C(=O)S/C(=C\c2cccnc2)C1=O)c1cccc(OC(F)F)c1 | -48.7%
CSc1nc(-c2ccco2)nn1C(=O)c1ccccc1 | 22.6%
COc1ccc(CN2CCN(C(=O)c3ccco3)CC2)cc1OC.O=C(O)C(=O)O | 16.8%
COc1ccccc1NS(=O)(=O)c1cccc(C(=O)NCC2(N(C)C)CCCCC2)c1 | -22.2%
CN1CCN(C(=O)CCN2C(=O)/C(=C/c3cccc(Br)c3)SC2=S)CC1 | 11.4%
Cc1cc(C)n2nc(SCC(N)=O)nc2n1 | 16.2%
COc1ccc(CN2C(=O)c3ccc(C(=O)O)cc3C2=O)cc1 | 11.7%
CNC(=O)[C@@]1(Cc2ccccc2)C=C[C@@H](C)N1C(=O)OC | 4.08%
O=C(NCc1ccccc1)C(c1ccccc1)N(Cc1ccc2c(c1)OCO2)C(=O)Cc1cccs1 (stereo not shown) | 3.28%
O=C(CCN1C(=O)c2ccccc2C1=O)Nn1cnnc1 | -0.368%
C=CCN1C(=O)CN=C1Nc1cc(C)ccc1C.Cl | -2.72%
CCOc1ccc(CCNC(=O)c2ccc(N3CCCC3=O)cc2)cc1OCC | 11%

SMILES | hERG current change (%, negative = inhibition) at 10uM
Cc1cc[n+](CC(=O)Nc2cccc(C)c2)cc1.[Cl-] | 6.68%
COc1ccc(N2CCN(C(=O)c3ccc(Oc4ccc(C(F)(F)F)cn4)cc3)CC2)cc1 | -19.3%
CCOC(=O)c1cccc(NC(=O)c2ccc(N(C)C)cc2)c1 | -23.5%
CCCCC1C2=C(CC(C)(C)CC2=O)OC2=C1C(=O)CC(C)(C)C2 | -9.48%
COc1ccc(CCNC(=O)C23CN(Cc4ccccc4)CC2C(c2cccc([N+](=O)[O-])c2)=NO3)cc1 (stereo not shown) | -7.39%
CC(=O)N1CCCN(C(=O)c2ccc3nc(Cc4cccc(Cl)c4)oc3c2)CC1 | -6.76%
CSCCC(NC(=O)c1cc(CC(C)C)oc1C)C(=O)O (stereo not shown) | 11.4%
COc1cc2ncnc(NCc3cccc(Cl)c3)c2cc1OC | -63.9%
COc1cccc(CN(C)C(=O)c2cc(S(=O)(=O)N3CCN(c4ccccc4)CC3)ccc2Cl)c1 | -6.89%
COc1ccc(/C=N/NC(=O)c2cccc([N+](=O)[O-])c2)cc1OC(=O)c1ccc(C)cc1 | 2.76%
CCOc1ccc(/C(O)=C2/C(=O)C(=O)N(c3ccccn3)C2c2ccc(Cl)cc2)c(C)c1 (stereo not shown) | 15.4%
CC(C)CN1C(=O)c2ccc(NC(=O)c3ccco3)cc2C1=O | 16.8%
COC(=O)NCCOc1nc(N(C)C)nc(N(C)C)n1 | 20.9%
COc1cc(OC)cc(C2C(C#N)=C(N)Oc3n[nH]c(-c4cccnc4)c32)c1 (stereo not shown) | 11.9%
CCOC(=O)c1[nH]c2ccc(OC)cc2c1NC(=O)CN1CCSCC1 | -14.5%
CC(=O)/C(=C/c1ccccc1)C(=O)Nc1ccccc1C | 13.5%
CC1CCN(C(=O)CNC(=O)c2ccc(Cl)cc2Cl)CC1 | -11.8%
CCOc1ccc(S(=O)(=O)N2CCC(C(=O)NCc3ccncc3)CC2)cc1C | -5.56%
O=C(N/N=C/c1ccccc1O)c1cccc(C(F)(F)F)c1 | -6.92%
Cc1[nH]c2ccccc2c1C(=O)CN1CC(C)CC(C)C1 (stereo not shown) | 0.738%
CCOC(=O)C(O)(C1C(=O)CC(C)(C)CC1=O)C(F)(F)F (stereo not shown) | 19.8%
CCOc1ccc(N2C(=O)Nc3ccccc3C2(O)C(=O)NCc2ccc(F)cc2)cc1 (stereo not shown) | 10.7%

SMILES | hERG current change (%, negative = inhibition) at 10uM
COc1ccc(Cc2nnc(SCC(=O)c3ccc4c(c3)OCO4)o2)cc1 | -0.299%
Cc1nc(N2CCCCC2)c(C#N)c(C)c1[N+](=O)[O-] | 15.3%
Cc1cc(=O)oc2cc(OCCCN3C(=O)c4ccccc4C3=O)ccc12 | 10.4%
Cc1cc(C)n(-c2ccc(C(=O)Nc3cccc(S(=O)(=O)N4CCCC4)c3)cc2)n1.Cl | 23.8%
CCCCCCCCC(=O)NCCOc1ccccc1 | -1.7%
Cc1nn(-c2ccccc2)c2sc(C(=O)NCCN3CCOCC3)cc12 | -16.7%
Cc1ccc(/C(O)=C2\C(=O)C(=O)N(c3cc(C)on3)C2c2cccc(Cl)c2)cc1 (stereo not shown) | 24.4%
CC(C)=CCOc1c2occc2cc2ccc(=O)oc12 | -17.9%
CNc1cc(N2CCN(S(=O)(=O)N(C)C)CC2)ccc1[N+](=O)[O-] | 15.7%
Cn1ncc(N=Cc2ccc([N+](=O)[O-])cc2)c1C(=O)Nc1ccccc1 | 19.3%
Cc1cc(C(=O)Cn2nc(C(=O)O)c3ccccc3c2=O)c(C)n1-c1ccc(OC(F)F)cc1 | 22.7%
O=C(COC(=O)/C=C/c1ccccc1[N+](=O)[O-])NC1CCS(=O)(=O)C1 (stereo not shown) | 26.4%
COc1ccc(OC)c(-n2nnnc2SCC(=O)NCc2ccc3c(c2)OCO3)c1 | -36%
COc1cccc(-c2cc(C(=O)Nc3ccc([N+](=O)[O-])cn3)c3ccccc3n2)c1 | -42.9%
COCCSc1nnc(NC(=O)CS(=O)(=O)c2ccccc2)s1 | 18.4%
O=C(Cn1cc(S(=O)(=O)Cc2ccccc2)c2ccccc21)N1CCOCC1 | 9.85%
CC1CCN(CCCCOc2cccc(Br)c2)CC1.O=C(O)C(=O)O | -69%
COc1cc(OC)c(NC2=CC(=O)C(=O)c3ccccc32)cc1Cl | 20.6%
CC(NC(=O)CNC(=O)c1sc2ccccc2c1Cl)c1cccnc1 (stereo not shown) | -16.6%
COc1ccc(-n2nc(C(=O)Nc3ccc(OC)c(OC)c3)c3c4ccccc4n(C)c3c2=O)cc1 | 7.41%
O=C(c1c(F)c(F)c(F)c(F)c1F)N1CCc2ccccc21 | 15.6%
Cc1cccc(-c2cc3c(N=O)c4ccccc4c-3n[nH]2)c1 | 18.7%

SMILES | hERG current change (%, negative = inhibition) at 10uM
CC1CCCC(C)N1C(=O)Nc1cccc(Cl)c1 (stereo not shown) | 5.65%
O=C(O)/C=C/C(=O)Nc1ccc(S(=O)(=O)N2CCCC2)cc1 | 7.59%
NC(=O)C(F)(F)C12OC3C4C5CC(C6C5C3C61)C42 (stereo not shown) | 15.1%
Cc1cc(NC(=O)CSc2nc(C)c(C)c(=O)[nH]2)no1 | 9.12%
O=C(NCc1cccs1)C1CC(c2ccc(F)cc2)=NO1 (stereo not shown) | 0.154%
COC(=O)C1CCCN1S(=O)(=O)c1ccc2ccccc2c1 (stereo not shown) | -14%
CCOC(=O)[C@@H]1[C@H]2COc3ccc(Br)cc3[C@H]2N2C(=O)N(c3ccc(F)cc3)C(=O)[C@]12C | 18.8%
CCCS(=O)(=O)N1CCN(Cc2ccco2)CC1.O=C(O)C(=O)O | 10.6%
CN1c2ccccc2-c2nc3ccccc3n2C1c1ccccn1 (stereo not shown) | -8.3%
CC(C)(C)c1ccc(C(=O)Cn2cnnc2C#N)cc1 | 3.7%
CC(C)(C)C(=O)OCCNc1nc(-c2ccccc2)nc2ccccc12 | 3.23%
CCOc1cc(/C=N/NC(=O)c2nnn(-c3nonc3N)c2C)ccc1OCc1cccc(F)c1 | 23.1%
CC(NC(=O)CNC(=O)c1ccco1)c1ccccc1 (stereo not shown) | 6%
Cc1ccc(SCCNC(=O)/C=C/c2ccc(Cl)cc2)cc1 | -0.0121%
CCCn1c(SCC(=O)NC2CCCCC2)nnc1C1CC1 | 10.8%
Clc1ccc(-c2cn3cccnc3n2)cc1 | 15.8%
Cc1nn(C(=O)CN2C(=O)c3ccccc3C2=O)c(C)c1Br | 5.28%
CC(C)(C)CC(=O)N1CCN(Cc2ccc3c(c2)OCO3)CC1 | 8.27%
NC(=O)Nc1ccc(C(=O)OCC(=O)Nc2ccc([N+](=O)[O-])cc2C(F)(F)F)cc1 | -13.2%
Nc1nnc(-c2ccc(Cl)cc2)o1 | 5.01%
CCOc1ccccc1N(CC(=O)N1CCc2ccccc2C1)S(C)(=O)=O | 13.3%
O=c1oc(-c2cccc(S(=O)(=O)N3CCOCC3)c2)nc2ccccc12 | 11.5%
